According to the supplement of paper PMC4967469:
The IC50 comes from the fitted curve, where viability falls to half of the control; where the fit passes the top or lowest dose, that dose stands as a limit. AUC sums up the same curve from the lowest dose to the 256-fold higher top dose; it is 1 without any effect and falls as sensitivity rises. For some assays here: Any top dose called inferred was calculated from the reported fits.

Tests used:
Assay in all cases: Viability of human cancer cell lines after 72 h of drug (GDSC screen)
[1] = compound: CNC(=O)c1cc(Oc2ccc(NC(=O)Nc3ccc(Cl)c(C(F)(F)F)c3)cc2)ccn1 [Sorafenib]; settings: top dose 4 µM
Method: (§1)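 Human cancer cell lines in 384-well plates, medium with 10% serum, drug for 72 h over a 256-fold dose range (nine 2-fold or five 4-fold steps up to the top dose). Adherent lines were fixed and stained with the nucleic acid dye Syto60, suspension lines read with resazurin; signal relative to control wells, capped at 0 and 100%. One two-parameter sigmoid per drug and line, fitted in a mixed model over all curves with the slope shared within a line.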

[2] = compound: COc1cc(N2CCN(C)CC2)ccc1Nc1nc(N)c(C(=O)c2c(Cl)cccc2Cl)s1 [XMD14-99]; settings: top dose 10.24 µM; top dose inferred
Method: as §1

[3] = compound: Cc1cc([N+](=O)[O-])ccc1NS(=O)(=O)c1cc(Cl)ccc1Cl [FH535]; settings: top dose 32 µM; top dose inferred
Method: as §1

[4] = compound: Cc1n[nH]c2ccc(-c3cncc(OC[C@@H](N)Cc4c[nH]c5ccccc45)c3)cc12 [A-443654]; settings: top dose 1.024 µM; top dose inferred
Method: as §1

[5] = compound: Cc1nc(Nc2ncc(C(=O)Nc3c(C)cccc3Cl)s2)cc(N2CCN(CCO)CC2)n1 [Dasatinib]; settings: top dose 1.28 µM
Method: as §1

[6] = compound: O=C(NC1CCNCC1)c1n[nH]cc1NC(=O)c1c(Cl)cccc1Cl [AT-7519]; settings: top dose 10.24 µM; top dose inferred
Method: as §1

Cell Line	AUC [1]	IC50 [1] [nM]	AUC [2]	IC50 [2] [nM]	AUC [3]	IC50 [3] [nM]	AUC [4]	IC50 [4] [nM]	AUC [5]	IC50 [5] [nM]	AUC [6]	IC50 [6] [nM]
LAMA-84 (chronic myeloid leukaemia, suspension)	0.769	1530	0.934	> 10200	0.682	6500	0.827	637	0.035	< 5	0.796	4880
EW-13 (Ewing sarcoma, suspension)	0.963	> 4000	0.913	> 10200	0.723	9320	0.918	> 1020	0.981	> 1280	0.451	465
MONO-MAC-6 (acute myeloid leukaemia, suspension)	0.195	29	0.891	> 10200	0.656	5590	0.531	78.2	0.855	1110	0.272	137
NCI-H1436 (small cell lung carcinoma, suspension)	0.753	1510	0.952	> 10200	0.898	> 32000	0.811	640	0.985	> 1280	0.894	> 10200
A253 (head and neck, adherent)	0.95	> 4000	0.988	> 10200	0.645	4990	0.789	438	0.911	> 1280	0.578	1040
CGTH-W-1 (thyroid, adherent)	0.467	204	0.983	> 10200	0.753	10600	0.712	254	0.387	39.1	0.939	> 10200
KGN (ovary, adherent)	0.88	> 4000	0.927	> 10200	0.6	3990	0.597	126	0.31	20.7	0.676	2220
NCI-H1694 (small cell lung carcinoma, suspension)	0.942	> 4000	0.986	> 10200	0.843	22500	0.836	675	0.989	> 1280	0.796	4770
WSU-DLCL2 (B-cell lymphoma, suspension)	0.96	> 4000	0.988	> 10200	0.918	> 32000	0.842	546	0.993	> 1280	0.741	2700
GB-1 (glioma, adherent)	0.89	> 4000	0.981	> 10200	0.556	2920	0.664	–	0.348	27.9	0.941	> 10200
SUP-T1 (T-cell lymphoblastic leukaemia, suspension)	0.99	> 4000	0.989	> 10200	0.659	5280	0.99	> 1020	0.99	> 1280	0.316	206
CW-2 (large intestine, adherent)	0.98	> 4000	0.981	> 10200	0.984	> 32000	0.989	> 1020	0.988	> 1280	0.988	> 10200
NCI-H209 (small cell lung carcinoma, suspension)	0.97	> 4000	0.973	> 10200	0.92	> 32000	0.696	237	0.985	> 1280	0.357	250
PSN1 (pancreas, adherent)	0.888	3250	0.981	> 10200	0.579	3170	0.47	53.6	0.43	53.1	0.343	254
NCI-H2171 (small cell lung carcinoma, suspension)	0.833	2110	0.978	> 10200	0.932	> 32000	0.965	> 1020	0.991	> 1280	0.879	8080
MY-M12 (leukaemia, suspension)	0.804	2320	0.947	> 10200	0.67	6370	0.615	139	0.076	< 5	0.335	208
LAN-6 (neuroblastoma, adherent)	0.91	> 4000	0.977	> 10200	0.783	16200	0.891	> 1020	0.968	> 1280	0.904	> 10200

Cell Line	AUC [1]	IC50 [1] [nM]	AUC [2]	IC50 [2] [nM]	AUC [3]	IC50 [3] [nM]	AUC [4]	IC50 [4] [nM]	AUC [5]	IC50 [5] [nM]	AUC [6]	IC50 [6] [nM]
EB2 (Burkitt lymphoma, suspension)	0.975	> 4000	0.933	> 10200	0.754	9840	0.972	> 1020	0.985	> 1280	0.232	117
NCI-H2081 (small cell lung carcinoma, suspension)	0.954	> 4000	0.989	> 10200	0.933	> 32000	0.913	> 1020	0.982	> 1280	0.774	4240
OCI-AML2 (acute myeloid leukaemia, suspension)	0.742	988	0.986	> 10200	0.566	2890	0.64	140	0.981	> 1280	0.444	469
A388 (skin, adherent)	0.78	1900	0.984	> 10200	0.651	5600	0.546	87.2	0.442	54.3	0.657	1880
NCI-H524 (small cell lung carcinoma, suspension)	0.943	> 4000	0.991	> 10200	0.781	11800	0.747	298	0.982	> 1280	0.64	1490
NCI-H526 (small cell lung carcinoma, suspension)	0.99	> 4000	0.861	8090	0.881	30900	0.851	732	0.983	> 1280	0.372	289
NKM-1 (acute myeloid leukaemia, suspension)	0.177	25.5	0.842	7520	0.708	7860	0.74	318	0.831	843	0.207	85.1
KNS-42 (glioma, adherent)	0.922	> 4000	0.982	> 10200	0.722	9760	0.734	345	0.814	873	0.93	> 10200
RCC10RGB (kidney, adherent)	0.954	> 4000	0.953	> 10200	0.773	28800	0.89	> 1020	0.737	758	0.897	> 10200
GRANTA-519 (B-cell lymphoma, suspension)	0.98	> 4000	0.988	> 10200	0.818	15700	0.781	381	0.951	> 1280	0.512	687
ME-1 (acute myeloid leukaemia, suspension)	0.907	> 4000	0.987	> 10200	0.811	18500	0.911	> 1020	0.989	> 1280	0.98	> 10200
ES-2 (ovary, adherent)	0.922	> 4000	0.989	> 10200	0.851	20100	0.927	> 1020	0.963	> 1280	0.59	1090
KALS-1 (glioma, adherent)	0.97	> 4000	0.975	> 10200	0.667	6950	0.671	231	0.542	108	0.443	423
LB1047-RCC (kidney, adherent)	0.964	> 4000	0.964	> 10200	0.651	5540	0.655	183	0.257	14.6	0.73	3180
ES6 (Ewing sarcoma, adherent)	0.853	> 4000	0.972	> 10200	0.529	2450	0.568	102	0.33	23.9	0.471	523
LB2518-MEL (melanoma, adherent)	0.735	1220	0.985	> 10200	0.437	1340	0.734	311	0.604	157	0.747	3430
GT3TKB (stomach, adherent)	0.975	> 4000	0.987	> 10200	0.587	3360	0.804	441	0.958	> 1280	0.863	7210
